Results as given in PMC4336329 (PLoS ONE, 2015).
About 2,200 (0.71%) of roughly 310,000 compounds showed an effect of 50% or more. Effects have a minus sign here. The list shows a part of the results.

Target: human ether-à-go-go-related gene (hERG) potassium channel (human, UniProt Q12809)
Experiment: primary screen, population patch clamp on CHO cells stably expressing hERG

Chain of human ether-à-go-go-related gene (hERG) potassium channel (Q12809 whole entry, looked up): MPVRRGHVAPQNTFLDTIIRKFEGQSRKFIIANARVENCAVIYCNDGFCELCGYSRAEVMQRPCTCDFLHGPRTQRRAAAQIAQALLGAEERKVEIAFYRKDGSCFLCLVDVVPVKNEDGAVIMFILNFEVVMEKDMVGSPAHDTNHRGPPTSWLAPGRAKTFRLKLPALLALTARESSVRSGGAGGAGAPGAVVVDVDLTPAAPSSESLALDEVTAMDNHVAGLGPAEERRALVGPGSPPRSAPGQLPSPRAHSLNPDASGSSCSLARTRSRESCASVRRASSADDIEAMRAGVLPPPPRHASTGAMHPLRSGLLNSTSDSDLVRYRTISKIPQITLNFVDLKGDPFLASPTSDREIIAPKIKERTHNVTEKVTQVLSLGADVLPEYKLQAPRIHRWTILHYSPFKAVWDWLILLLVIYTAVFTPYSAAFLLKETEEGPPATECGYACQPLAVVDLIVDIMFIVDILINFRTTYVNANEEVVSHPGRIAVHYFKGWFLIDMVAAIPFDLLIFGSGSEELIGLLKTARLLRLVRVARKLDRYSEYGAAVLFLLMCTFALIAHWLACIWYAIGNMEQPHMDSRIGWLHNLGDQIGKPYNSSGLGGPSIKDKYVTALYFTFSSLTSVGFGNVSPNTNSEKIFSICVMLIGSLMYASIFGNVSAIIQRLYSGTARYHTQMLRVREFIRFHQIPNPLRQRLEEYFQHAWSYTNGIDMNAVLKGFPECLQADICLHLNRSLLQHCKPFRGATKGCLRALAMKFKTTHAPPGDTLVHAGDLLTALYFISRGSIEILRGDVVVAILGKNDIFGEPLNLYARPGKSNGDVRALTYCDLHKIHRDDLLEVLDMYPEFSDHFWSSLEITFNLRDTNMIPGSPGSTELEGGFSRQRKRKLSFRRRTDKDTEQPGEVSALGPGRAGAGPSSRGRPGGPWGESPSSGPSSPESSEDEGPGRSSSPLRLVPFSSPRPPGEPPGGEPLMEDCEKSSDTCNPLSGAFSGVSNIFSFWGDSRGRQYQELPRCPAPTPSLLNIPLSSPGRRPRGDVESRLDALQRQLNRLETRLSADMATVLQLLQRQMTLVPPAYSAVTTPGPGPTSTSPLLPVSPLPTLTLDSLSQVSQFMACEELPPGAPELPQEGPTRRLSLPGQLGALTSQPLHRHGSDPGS

SMILES | hERG current change (%, negative = inhibition) at 1uM [%]
COc1ccc(-c2cc(C(=O)Nc3c(C)nn(Cc4ccc(Cl)cc4)c3C)no2)cc1 | -0.582
COc1ccccc1C(=O)N/N=C(\C)CC(=O)Nc1ccc(Nc2ccccc2)cc1 | 13.2
O=C(CC(NCCN1CCOCC1)C(=O)O)Nc1cccc(Cl)c1 (centres unmarked) | 21.5
Cc1ccccc1C(=O)NC(=S)Nc1ccc(N2CCOCC2)cc1 | 8.54
Cc1ccc(-n2ncc3c(NCCCN4CCOCC4)ncnc32)c(C)c1 | 3.5
O=C(Nc1cc(C(F)(F)F)ccc1N1CCOCC1)c1ccc(F)cc1 | 10.8
COC(=O)c1sc(NC(C)=O)c(C(=O)OC)c1C | 3.6
CC(=O)C1=NN(c2ccccc2)C(c2cccs2)N1c1ccc(N(C)C)cc1 (centres unmarked) | 7.46
O=C(O)/C=C/C(=O)Nc1cccc(C(F)(F)F)c1 | 9.55
O=C(CS(=O)(=O)c1cn(Cc2cccc(F)c2)c2ccccc12)N1CCCCC1 | 0.563
CCOC(=O)Cc1csc(NC(=O)/C=C/c2ccc(Br)o2)n1 | -4.46
C=C1CCC[C@]2(C)C[C@H]3OC(=O)C(CN4CCOCC4)[C@H]3C[C@@H]12 (some centres unmarked) | 19.6
O=[N+]([O-])c1cc(S(=O)(=O)N2CCOCC2)ccc1OCc1cccc(Cl)c1 | 4.08
Cc1ccc(S(=O)(=O)NCC2CCC(C(=O)N3CCC4(CC3)OCCO4)CC2)cc1 (centres unmarked) | 0.834
CCc1ccc2nc(-c3cccc(C)c3)nc(SCC(=O)NCC3CCCO3)c2c1 (centres unmarked) | -9.99
CC(C)C(NC(=O)c1ccccc1)C(=O)NC1CCCc2ccccc21 (centres unmarked) | 12.3
COCCCNC(=O)c1ccc(-c2nc3ccccc3nc2-c2ccccc2)cc1 | 8.01
Cc1cc(/C=C2/NC(=O)N(Cc3ccccc3F)C2=O)c(C)n1C(C)C | 4.27
C1CN(c2nc3nonc3nc2N2CCSCC2)CCO1 | 6

SMILES | hERG current change (%, negative = inhibition) at 1uM [%]
CCOc1ccc(NC(=O)NC(=O)N(C(C)C)S(C)(=O)=O)cc1 | 14.7
Cn1nnc(NC(=O)c2ccc3ccccc3c2)n1 | 13.3
COc1ccc(N2C(=O)CS/C2=C\[N+](=O)[O-])cc1 | 11.7
CCN(CC)S(=O)(=O)c1cc([N+](=O)[O-])ccc1N1CCC(C(N)=O)CC1 | -0.296
CC(C)COP(=O)(OCC(C)C)C(O)c1ccc(N(C)C)cc1 (centres unmarked) | 13.5
Cc1cc(C)c2nc(N3CCCN(C(=O)c4cnccn4)CC3)c(C#N)cc2c1 | 0.686
Cc1ccc2nc(N3CCN(C(=O)c4ccco4)CC3)c3nncn3c2c1 | 10.3
C/C(=N\Nc1ccc(Cl)c(C(=O)O)c1)c1ccc(N2CCOCC2)cc1 | 15.8
OCc1ccc(-c2nn(Cc3ccccc3)c3ccccc23)o1 | 7.57
Cc1ccc(/C=C/C(=O)Nc2ccc(O)c3c(=O)cc(-c4ccccc4Cl)oc23)cc1 | 11.7
CCc1ccc(C2c3[nH]c4ccccc4c3CCN2C(=O)c2cc[n+]([O-])cc2)cc1 (centres unmarked) | 11.2
Cc1cccc(C(=O)NC(NCc2ccco2)C(Cl)(Cl)Cl)c1 (centres unmarked) | 8.24
Cc1cccc(N(C)C(=O)c2coc(=O)c3ccccc23)c1 | 18.2
O=C(NCc1ccc2c(c1)OCO2)c1nnc(Cc2ccc(F)cc2)o1 | 4.52
O=C1CNC(=S)N1C1CCCCCC1 | 21.6
C=CCCN(C(C(=O)OC)C(C)C)S(=O)(=O)c1ccccc1Br (centres unmarked) | 9.39
CCC(=O)Nc1ccccc1-c1nnn(CC(=O)N2c3ccccc3CC2C)n1 (centres unmarked) | 8.66
Cc1cc(N2CCCC2=O)ccc1S(=O)(=O)NCCOc1ccccc1 | 12.6
Cc1ccc(S(=O)(=O)N(C)c2ccc(N)cc2)cc1 | 7.13

SMILES | hERG current change (%, negative = inhibition) at 1uM [%]
CCC(=O)Nc1nc(-c2cc([N+](=O)[O-])cs2)cs1 | 11.4
Cc1ccc2[nH]c(=O)c(-c3nc4ccccn4c3NCc3ccco3)cc2c1 | -4.3
COc1ccc(CNC(=O)c2csnn2)cc1 | -0.56
Cc1ccc(CCNC(=O)C2CCC(=O)N2Cc2ccc(F)cc2)cc1 (centres unmarked) | 8.09
OC1(c2cccc(C(F)(F)F)c2)CCN(c2ccc(-c3ccccc3)nn2)CC1 | 11
COc1ccc(/C=C(/NC(=O)c2ccccc2)C(=O)N/N=C/c2cccs2)cc1OC | 16.2
O=C(Nn1nnnc1Nc1ccccc1)C12CC3CC(CC(C3)C1)C2 | 10.1
O=C1CSC(c2ccc(Cl)cc2Cl)N1c1ccccn1 (centres unmarked) | 20.6
CCN(CC)S(=O)(=O)c1cccc(NC(=O)c2cc(-c3cccs3)nn2-c2ccccc2)c1 | 11.5
COc1ccccc1-n1cnnc1SCC(=O)Nc1cccnc1Cl | -5.7
CC(C)n1c(N2CCN(C(=O)Nc3ccccc3)CC2)nc2ccccc21 | 5.63
O=C(c1ccccn1)c1ncc(C(F)(F)F)cc1Cl | 17
COc1ccc(-c2c(C)nc3c(-c4ccc(F)cc4)cnn3c2N)cc1 | 7.77
CCCn1c(=NC(=O)CS(=O)(=O)c2ccccc2)sc2cc(S(C)(=O)=O)ccc21 | 12.9
CC(=O)Nc1cccc(-c2nc3ccc(NC(C)=O)cc3s2)c1 | -6.71
CCNC(=O)COC(=O)CCNC(=O)c1ccc(Cl)cc1 | 7.56
COc1ccc(C(=O)c2cn[nH]c2-c2cc(Cl)ccc2O)cc1 | -0.311
CS(=O)(=O)N1CCN=C1SCc1ccc(F)cc1 | 13.9
